Assay results as given in the BET-seq Pho4 binding data (Le et al. 2018).
The list shows a part of the results. Values were computed here from the reads of four pooled replicates and scatter widely.

target: T1, Pho4 (S. cerevisiae) (UniProt P07270); assay: relative binding free energy (BET-seq); higher = weaker binding; settings: reference: library average
T1 sequence: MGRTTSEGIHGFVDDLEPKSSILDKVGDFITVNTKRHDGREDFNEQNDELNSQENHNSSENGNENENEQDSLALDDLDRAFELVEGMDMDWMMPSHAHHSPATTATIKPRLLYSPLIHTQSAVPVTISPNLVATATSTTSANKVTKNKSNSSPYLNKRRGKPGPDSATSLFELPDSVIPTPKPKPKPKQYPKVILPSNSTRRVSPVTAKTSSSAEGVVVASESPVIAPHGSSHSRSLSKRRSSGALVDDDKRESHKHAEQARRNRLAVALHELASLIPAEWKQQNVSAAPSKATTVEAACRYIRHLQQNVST

Relative binding free energy, -0.05 kcal/mol:
GGGGGCACGTGGAAAG
ATGCACACGTGGAGGT
GGTGTCACGTGGGTCC
TTCAGCACGTGATGGG
TACGGCACGTGTTTAG
TTGAGCACGTGTAGGT
TGCATCACGTGGGGAG

Relative binding free energy, 0.13 kcal/mol:
CATGTCACGTGTGGGC
TTTTGCACGTGTAATG
ACTGTCACGTGGCGTG
TTGTTCACGTGGTTCA
CGTGTCACGTGATGCA

Relative binding free energy, -0.27 kcal/mol:
ACAGGCACGTGTGTTG

Relative binding free energy, 0.32 kcal/mol:
GGTCACACGTGAGGGT
GGTAACACGTGATAGG

Relative binding free energy, 0.18 kcal/mol:
TAAGTCACGTGTGGAA
TGTCTCACGTGGCTGG
GTAGGCACGTGAGGCG
AGTCGCACGTGAGGAT

Relative binding free energy, 0.15 kcal/mol:
TTAGGCACGTGAGTGT
TGGTGCACGTGTGAAT
TTTCCCACGTGTTTAT
TAAGTCACGTGATGCT
GTTTGCACGTGCAGGT

Relative binding free energy, -0.08 kcal/mol:
TGGAGCACGTGTTGCT
TGATGCACGTGGTGCG
TTGGGCACGTGTTACA

Relative binding free energy, 0.42 kcal/mol:
GGCTTCACGTGAGGTT
GTAAGCACGTGAATGA
AATTTCACGTGACTGG

Relative binding free energy, 0.05 kcal/mol:
GCATACACGTGGTTTG
TGTTGCACGTGGTATC
GATGACACGTGGTTTT
TGAGTCACGTGTGCTG
TAAAGCACGTGTGGAA
GTAGGCACGTGTTGCT
GCTGCCACGTGGTGGA

Relative binding free energy, 0.17 kcal/mol:
TTCTCCACGTGTTTAG
GCTAGCACGTGTAGTT
TGTAGCACGTGAATTT
TGCGTCACGTGTCGAG
GCATTCACGTGTTTTA
TTCTTCACGTGGGATT
TATCTCACGTGGTGGT

Relative binding free energy, 0.35 kcal/mol:
AAGTACACGTGAGGTT
GTTGTCACGTGAGGTT

Relative binding free energy, 0.52 kcal/mol:
AAGTTCACGTGTCGGG

Relative binding free energy, -0.23 kcal/mol:
AGACGCACGTGGGGGA
ATCAACACGTGGGTTG
TGCGCCACGTGGGGGT
TTGCGCACGTGGTTAG

Relative binding free energy, 0.16 kcal/mol:
GGGTGCACGTGGAGTT
GTATTCACGTGGGGAA
AGGATCACGTGGAGTT
GGTTACACGTGATCTT

Relative binding free energy, -0.3 kcal/mol:
TTATGCACGTGGTCTA

Relative binding free energy, 0.01 kcal/mol:
TAGTGCACGTGTTAAT
AGTGGCACGTGTTGCC
GGTGGCACGTGTGCTT
AGAGTCACGTGGGCTT
TAATGCACGTGGGACT
TCAGGCACGTGATGAG
AGTGTCACGTGCATTA
AATGGCACGTGTTATT
CTTAACACGTGGCGGT

Relative binding free energy, 0.34 kcal/mol:
GAGTGCACGTGAAAGT
TTGCTCACGTGTAAGG

Relative binding free energy, 0.28 kcal/mol:
GATCGCACGTGAGAGG
ATGCTCACGTGATTTA
AGAGTCACGTGCGAGA
TGGTTCACGTGTGTTG
AGATTCACGTGTATAA

Relative binding free energy, 0.04 kcal/mol:
TGTTACACGTGCAGGT
GGTGTCACGTGCTAGT
AGGGTCACGTGTTATA
TGAATCACGTGCTTGG
TATATCACGTGGGAGT

Relative binding free energy, -0.17 kcal/mol:
TTGCGCACGTGCGGGG

Relative binding free energy, -0.09 kcal/mol:
CGGTACACGTGTGCGG
GTAGGCACGTGGTCGT

Relative binding free energy, 0.03 kcal/mol:
GATGGCACGTGTCGAG

Relative binding free energy, 0.19 kcal/mol:
GTGTCCACGTGTCGTT
TATGTCACGTGAGCTT
GGGCTCACGTGTTGGA
AAAATCACGTGTAGTT
GGAGTCACGTGATTAT

Relative binding free energy, 0.22 kcal/mol:
TATCTCACGTGGATTG

Relative binding free energy, -0.18 kcal/mol:
CGCAGCACGTGGGGCG
TGTCGCACGTGGTACG

Relative binding free energy, -0.12 kcal/mol:
TAGAGCACGTGTTTTA
CCCGTCACGTGGTGGG

Relative binding free energy, 0.02 kcal/mol:
GTTAACACGTGTGGTA
AACGTCACGTGGTGGT
TTGTCCACGTGGGATT
GGTTACACGTGGGGTG
GGGGACACGTGGTGGA

Relative binding free energy, 0.43 kcal/mol:
GTATTCACGTGATGGC

Relative binding free energy, -0.06 kcal/mol:
GCGGGCACGTGTGTAT
AGTGGCACGTGTTAAC
TTGAGCACGTGCGTTT
TTGTGCACGTGGTCAC

Relative binding free energy, 0.11 kcal/mol:
GTAGTCACGTGCGGGG
TGTATCACGTGGTTAC
TTGGTCACGTGTCAGT
TGTGTCACGTGGATTA
TGGTTCACGTGCGCAT
ACTGACACGTGTTTTT

Relative binding free energy, -0.02 kcal/mol:
TGGTCCACGTGCTTTT

Relative binding free energy, 0.27 kcal/mol:
ACTGTCACGTGAGGTT
TGAATCACGTGTTGTC
AGTTACACGTGAGATG
TAGCTCACGTGGCTGT

Relative binding free energy, 0.31 kcal/mol:
GATGTCACGTGATGAG
AGATTCACGTGGTTGT
GATTTCACGTGTCATT
GTGTTCACGTGTTGGT

Relative binding free energy, -0.24 kcal/mol:
ATTGGCACGTGGTGTT

Relative binding free energy, -0.04 kcal/mol:
GGTAGCACGTGTGATT
GTTGGCACGTGTCTGC
GGAGGCACGTGTGCCG
TCTAGCACGTGCGGTA

Relative binding free energy, -0.19 kcal/mol:
GCGCGCACGTGGTGTA
TTATGCACGTGGGCCT

Relative binding free energy, 0.09 kcal/mol:
AGCATCACGTGTGGGA
GAGAGCACGTGTGAGG

Relative binding free energy, 0.29 kcal/mol:
CTTGTCACGTGATTTG
AGGTTCACGTGTGAGA
AGGTACACGTGACTTT

Relative binding free energy, -0.21 kcal/mol:
TCATGCACGTGGGTAA

Relative binding free energy, 0 kcal/mol:
TGTGTCACGTGCAGAA
AGGCGCACGTGTGGAG
CGGGTCACGTGGGGAA

Relative binding free energy, 0.26 kcal/mol:
ATTTTCACGTGCGCGT

Relative binding free energy, 0.1 kcal/mol:
GTAAACACGTGTGTTT
TAATGCACGTGAGTGG
TTTGTCACGTGTGTCG
GGGCCCACGTGTGGCG

Relative binding free energy, 0.12 kcal/mol:
GTGCACACGTGTGGGA
CGGAGCACGTGAGTGT
TTCGGCACGTGAATGT
GGTCACACGTGTTGGT
GAGCACACGTGGTTGG

Relative binding free energy, 0.46 kcal/mol:
TTTTTCACGTGCACGC
GCAATCACGTGAGGTG
TATTTCACGTGTAACG

Relative binding free energy, -0.03 kcal/mol:
GCTGTCACGTGGTATG
CTATACACGTGGGGGT
GTGCACACGTGGGTGA
TAATCCACGTGTGTGT
CGGGGCACGTGATGTG
GTGCGCACGTGCGGTT
GGTAGCACGTGTGGAT
ACGGGCACGTGGAGGT
AGGAACACGTGGTAGA

Relative binding free energy, 0.21 kcal/mol:
AATTTCACGTGCGGGC
CTGGTCACGTGTCTTG
TGGTTCACGTGTGGCT
TTATTCACGTGCTGTC
TTATTCACGTGGGTTA

Relative binding free energy, 0.2 kcal/mol:
GGTCTCACGTGAGTGA
AGTTGCACGTGAATAT
AGCTTCACGTGGTTGA
CTGTTCACGTGGGGTA
AATTTCACGTGGATTA

Relative binding free energy, 0.38 kcal/mol:
GGGCTCACGTGAGTTG

Relative binding free energy, -0.15 kcal/mol:
ATGTGCACGTGCTCGG

Relative binding free energy, 0.06 kcal/mol:
TTTAACACGTGATTGA
TTAGCCACGTGAGTTG
TAGGACACGTGATGGT
TCTTACACGTGTTTTT

Relative binding free energy, -0.25 kcal/mol:
TTGCGCACGTGGTCGG

Relative binding free energy, -0.01 kcal/mol:
TGTTGCACGTGTGCGC
CTGGGCACGTGGTTTA
TGGGGCACGTGATAGC
TGTATCACGTGCGTGA
TTGTCCACGTGTATAT
GAAGGCACGTGGTCCG
TTTTGCACGTGGTACG
CAGGGCACGTGGTAAG

Relative binding free energy, 0.33 kcal/mol:
GGACTCACGTGTAAGG
GTTTTCACGTGGTATG

Relative binding free energy, 0.24 kcal/mol:
GTTACCACGTGAAGGT
TTAAGCACGTGAGAGA
TTCATCACGTGGAATT

Relative binding free energy, -0.07 kcal/mol:
TGCCGCACGTGTGTTG
AGTAACACGTGTGTAA
GGTAGCACGTGGCTCG
GGGAACACGTGCGGTG

Relative binding free energy, 0.37 kcal/mol:
TCGTTCACGTGGGTAT
GCTTTCACGTGAGATT

Relative binding free energy, -0.11 kcal/mol:
TTGGGCACGTGGGTCG
AAGCGCACGTGGGATT
TTGTGCACGTGGGTGA
TGGGACACGTGCATGT
AAAGGCACGTGGACGT

Relative binding free energy, -0.13 kcal/mol:
GGAGGCACGTGGTAAG
CTTGGCACGTGTGTCG
TGTGGCACGTGGTGTG
GGTGGCACGTGCAGAT
GTTGGCACGTGGCATT

Relative binding free energy, 0.45 kcal/mol:
AGTTTCACGTGCGAGT

Relative binding free energy, -0.14 kcal/mol:
ATTCCCACGTGGTGGG
AAGTGCACGTGCTGTA
AATGGCACGTGGCCGT
TGCGGCACGTGGCGGG
TGTAGCACGTGCCTTG

Relative binding free energy, 0.3 kcal/mol:
AAAGTCACGTGTCTGT
TCATTCACGTGTATTT

Relative binding free energy, -0.16 kcal/mol:
AGGGGCACGTGTTTAA
CTTGACACGTGGTTTA

Relative binding free energy, 0.14 kcal/mol:
TCAATCACGTGGATGG
CGACTCACGTGGGTGG
ATTTACACGTGTAATG
CGGGGCACGTGAGTTG
TGAGACACGTGGTAGC

Relative binding free energy, 0.25 kcal/mol:
TGATTCACGTGACGTG
TGAGTCACGTGTAGCG
TGGCTCACGTGATTAG
GTGCTCACGTGTGGCT
GCTGTCACGTGTGGGT
CTATTCACGTGCTGGG
TCCTTCACGTGTTTTG
GTGTTCACGTGTTATG

Relative binding free energy, -0.2 kcal/mol:
TAATGCACGTGGGGGG

Relative binding free energy, 0.07 kcal/mol:
GTAATCACGTGTGCTT
CTTATCACGTGGGGAA
GAGTGCACGTGTCGAT
TTGGACACGTGTCATA

Relative binding free energy, -0.1 kcal/mol:
TTAGCCACGTGTTAGG
TCGGGCACGTGTTGAT
